Assay results reported in the supplement of paper PMC9446081.
About 220 (0.56%) of roughly 39,000 compounds showed activity. This is one part of the list.

Tested on: Escherichia coli K-12 BW25113
Assay: relative growth (OD600 normalised to plate interquartile mean) (fraction); higher = less growth inhibition, active = 0.2 or less
Conditions: 50 µM; LB; incubation time: overnight (16-24 h)
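Further: static incubation at 37 °C against the wild-type strain, values averaged over two biological replicates.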

SMILES	relative growth
Cc1ccc(S(=O)(=O)N(C)C[C@H]2OCCCC[C@H](C)Oc3ccc(NC(=O)C4CCCCC4)cc3C(=O)N([C@@H](C)CO)C[C@@H]2C)cc1	inactive: 1.01
C[C@@H]1CCCCO[C@H](CN(C)Cc2ccc3c(c2)OCO3)[C@H](C)CN([C@@H](C)CO)C(=O)c2cc(NC(=O)Cc3ccccc3)ccc2O1	inactive: 0.983
CC(C)[C@@H](N)c1nccn1C	inactive: 1.01
Cc1ccc(S(=O)(=O)N2C[C@@H](O)COC[C@@H]3O[C@@H](CC(=O)NCc4ccc(Cl)c(Cl)c4)CC[C@H]32)cc1	inactive: 1
C[C@H](CCC(=O)O)[C@H]1CC[C@H]2[C@@H]3CC=C4C[C@@H](O)CC[C@]4(C)[C@H]3CC[C@]12C [3beta-HYDROXYCHOL-5-ENIC ACID]	inactive: 1.06
C[C@@H]1CN([C@H](C)CO)C(=O)c2cc(NS(=O)(=O)c3cccs3)ccc2O[C@@H]1CN(C)S(=O)(=O)c1cccs1	inactive: 1
C[C@@H]1CN([C@H](C)CO)C(=O)c2cc(NC(=O)CCN3CCOCC3)ccc2O[C@H]1CN(C)C(=O)Nc1ccccc1	inactive: 0.989
CN(C)CCCNC(=O)C[C@H]1C=C[C@H](NC(=O)Cc2cccnc2)[C@H](CO)O1	inactive: 0.936
C[C@@H]1CCCCO[C@@H](CN(C)C(=O)Nc2ccc(F)cc2)[C@@H](C)CN([C@@H](C)CO)C(=O)c2cc(NC(=O)Nc3ccc(C(F)(F)F)cc3)ccc2O1	inactive: 0.983
Cc1ccc(S(=O)(=O)Nc2ccc3c(c2)C(=O)N([C@H](C)CO)C[C@H](C)[C@@H](CN(C)C(=O)Nc2c(C)noc2C)OCCCC[C@H](C)O3)cc1	inactive: 0.824
C[C@H](CO)N1C[C@H](C)[C@H](CN(C)S(=O)(=O)c2cccs2)Oc2ccc(NC(=O)CCN3CCOCC3)cc2C1=O	inactive: 1
C[C@H](CO)N1C[C@H](C)[C@@H](CN(C)S(=O)(=O)c2ccc(F)cc2)Oc2ccc(NS(=O)(=O)c3cn(C)cn3)cc2C1=O	inactive: 1
C=CCOC(=O)[C@@H]1[C@@H]2C=C[C@]3(O2)[C@H](C(=O)N(CC=C)Cc2ccccc2)N(c2cccc(Cl)c2CO)C(=O)[C@@H]13	inactive: 1.02
COCC#Cc1ccc2c(c1)O[C@@H](CN(C)S(=O)(=O)c1cccc(F)c1)[C@@H](C)CN([C@@H](C)CO)S2(=O)=O	inactive: 1.02
CC(C)NC(=O)Nc1ccc2c(c1)C(=O)N([C@H](C)CO)C[C@H](C)[C@@H](CN(C)C(=O)Nc1ccc3c(c1)OCO3)O2	inactive: 0.997
N=C(N)SCCN1C(=O)c2ccccc2C1=O	inactive: 0.996
COc1ccc(CN(C)C[C@@H]2OCCCC[C@H](C)Oc3ccc(NC(=O)Nc4c(C)noc4C)cc3C(=O)N([C@@H](C)CO)C[C@@H]2C)cc1	inactive: 1.01
CC(=O)Nc1ccccc1	inactive: 0.95
C[C@H](CO)N1C[C@H](C)[C@@H](CN(C)S(=O)(=O)c2ccc(Cl)cc2)Oc2c(cccc2N(C)C)C1=O	inactive: 1.01
Cc1noc(C)c1NC(=O)N[C@H]1C=C[C@H](CC(=O)N2CCN(C)CC2)O[C@H]1CO	inactive: 1.02

SMILES	relative growth
CNC(=O)c1ccc2c(c1)nnn2C	inactive: 0.978
C[C@H](CO)N1C[C@H](C)[C@H](CN(C)C(=O)C2CCCCC2)OCCCC[C@H](C)Oc2ccc(NC(=O)c3ccccc3)cc2C1=O	inactive: 0.992
CC(C)CCC[C@@H](C)[C@H]1CC[C@H]2[C@@H]3CCC4=C/C(=N/O)CC[C@]4(C)[C@H]3CC[C@]12C	inactive: 0.982
C[C@H](CO)N1C[C@H](C)[C@H](CN(C)Cc2ccccc2)Oc2c(NC(=O)Nc3cccc4ccccc34)cccc2C1=O	inactive: 1
C[C@@H]1CN([C@H](C)CO)S(=O)(=O)c2ccc(C#CCC3CCCC3)cc2O[C@H]1CN(C)C(=O)CN(C)C	inactive: 0.817
CNC(=O)C[C@@H]1CC[C@H]2[C@@H](COC[C@H](O)CN2C(=O)Nc2ccc3c(c2)OCO3)O1	inactive: 0.967
C[C@@H]1CN([C@H](C)CO)C(=O)Cc2cc(NS(=O)(=O)c3cn(C)cn3)ccc2O[C@@H]1CN(C)C(=O)NC1CCCCC1	inactive: 1
CC(=O)Oc1ccc(-c2cc(=O)c3c(OC(C)=O)cc(OC(C)=O)cc3o2)cc1	inactive: 0.979
COCCN1C(=O)C[C@@H]2[C@@H]1CCN2C(=O)c1csnn1	inactive: 0.968
CCCCCCCCCCCCCCCC[N+](C)(C)CCN(Cc1ccc(OC)cc1)c1ncccn1	inactive: 0.555
C[C@H](CO)N1C[C@H](C)[C@@H](CN(C)C(=O)Cc2ccccc2)OCCCC[C@H](C)Oc2ccc(NC(=O)Nc3ccc4c(c3)OCO4)cc2C1=O	inactive: 1.05
C[C@@H]1CN([C@H](C)CO)C(=O)c2cc(NC(=O)Nc3ccc(C(F)(F)F)cc3)ccc2O[C@@H]1CN(C)Cc1ccc(C(=O)Nc2ccccc2N)cc1	inactive: 0.977
C[C@H]1CN([C@@H](C)CO)C(=O)c2cccc(NC(=O)C3CC3)c2O[C@@H]1CN(C)S(=O)(=O)c1ccc(Cl)cc1	inactive: 1
COCC1=C(C(=O)OC(C)OC(=O)OC(C)C)N2C(=O)C(NC(=O)C(=NOC)c3csc(N)n3)C2SC1 (centres undefined)	inactive: 0.551
C[C@H]1CN([C@@H](C)CO)C(=O)c2c(c3ccccc3n2C)-c2ccccc2CO[C@@H]1CN(C)C(=O)CCC(F)(F)F	inactive: 0.991
CC(C)NC(=O)N(C)C[C@H]1Oc2ccc(NC(=O)CCCN(C)C)cc2CC(=O)N([C@@H](C)CO)C[C@@H]1C	inactive: 0.987
C[C@H]1CN([C@@H](C)CO)C(=O)c2cccc(NC(=O)c3cnccn3)c2O[C@H]1CN(C)Cc1ccc(C(=O)O)cc1	inactive: 1
C[C@@H]1CN([C@H](C)CO)C(=O)c2cc(NS(C)(=O)=O)ccc2O[C@@H]1CN(C)S(=O)(=O)c1ccc(F)cc1	inactive: 0.991
C[C@@H]1CCCCO[C@H](CN(C)C(=O)CCC(F)(F)F)[C@@H](C)CN([C@H](C)CO)C(=O)c2cc(NC(=O)Nc3ccc4c(c3)OCO4)ccc2O1	inactive: 0.976
